Test results as given in PubChem BioAssay AID504339 (National Center for Advancing Translational Sciences (NCATS), 2011).
Several values for one entry are separate records, joined by “and”; a condition that tells them apart may be missing. Equal values may be shown once. The campaign covered roughly 390,000 compounds. About 17,000 (4.4%) were called active. Inconclusive means that the source gave no clear call. Such entries were picked first, then a sample of the others. Calls follow the shape of the dose curve; as a rule, active = well fitted inhibition curve with a large enough effect; inconclusive = small, poorly fitted or top-dose-only effect; inactive = no such curve, though single readings can be large or run the other way. A potency beside an inconclusive call is a rough fit, not a confirmed value.

target: Lysine-specific demethylase 4A (Homo sapiens) (UniProt O75164); assay: qHTS Assay for Inhibitors of JMJD2A-Tudor Domain; conditions: AlphaScreen JMJD2A-Tudor / H3K4me3 peptide binding; activity change, negative = inhibition: at 114 µM (top of the series); also: nearly all actives have a fitted effect of over 50% in size
% is scaled to controls: 0 for no effect and ±100 for the full control effect; potency is read from the fitted curve at half-maximal effect; tags tell the direction and shape of the fitted curve.

UniProt O75164, sequence (O75164 whole entry, looked up, the tested form may be a part): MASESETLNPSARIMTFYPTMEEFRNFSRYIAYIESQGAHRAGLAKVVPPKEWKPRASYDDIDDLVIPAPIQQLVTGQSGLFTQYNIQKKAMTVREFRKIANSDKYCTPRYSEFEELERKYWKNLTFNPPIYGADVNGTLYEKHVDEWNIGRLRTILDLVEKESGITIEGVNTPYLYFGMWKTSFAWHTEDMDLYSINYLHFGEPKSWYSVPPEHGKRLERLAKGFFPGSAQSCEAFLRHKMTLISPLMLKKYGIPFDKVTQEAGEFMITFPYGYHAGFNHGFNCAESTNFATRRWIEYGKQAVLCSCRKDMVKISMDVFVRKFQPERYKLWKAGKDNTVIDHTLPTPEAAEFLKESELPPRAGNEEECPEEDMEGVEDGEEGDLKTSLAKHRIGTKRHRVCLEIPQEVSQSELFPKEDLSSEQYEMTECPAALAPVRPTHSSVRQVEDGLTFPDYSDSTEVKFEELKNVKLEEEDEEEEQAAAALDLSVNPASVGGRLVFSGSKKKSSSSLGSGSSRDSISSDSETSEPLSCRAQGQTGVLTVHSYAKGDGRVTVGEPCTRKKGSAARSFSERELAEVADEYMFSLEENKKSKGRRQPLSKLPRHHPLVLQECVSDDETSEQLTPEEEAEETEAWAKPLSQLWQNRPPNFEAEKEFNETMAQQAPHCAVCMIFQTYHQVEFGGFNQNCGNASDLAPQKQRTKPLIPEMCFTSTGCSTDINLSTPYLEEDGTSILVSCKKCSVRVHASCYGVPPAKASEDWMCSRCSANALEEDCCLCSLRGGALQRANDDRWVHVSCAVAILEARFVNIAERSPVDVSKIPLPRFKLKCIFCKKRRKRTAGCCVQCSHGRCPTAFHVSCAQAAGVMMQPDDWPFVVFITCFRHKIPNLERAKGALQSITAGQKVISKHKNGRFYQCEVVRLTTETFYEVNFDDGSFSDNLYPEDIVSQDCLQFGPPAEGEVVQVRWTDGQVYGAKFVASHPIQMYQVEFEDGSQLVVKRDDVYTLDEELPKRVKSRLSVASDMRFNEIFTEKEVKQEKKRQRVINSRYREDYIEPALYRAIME

Compound | Potency | activity change, negative = inhibition
O=C(Nc1ccc2[nH]c(=S)sc2c1)c1ccccc1 | inactive | 
O=c1cc(CN2CCN(Cc3ccccc3)CC2)c2ccc(O)c(O)c2o1 | inconclusive: 44.7 µM [inhibitor, partial curve] | 
Cc1ccc(O)c(C(=O)c2cnc3c(c2)c(-c2ccc(F)cc2)c(C#N)c(=O)n3C)c1 | inactive | 
C=CS(=O)(=O)c1sc(Cl)c(N2CCOCC2)c1[N+](=O)[O-] | active: 79.4 µM | 
CCOC(=O)c1sc2ccccc2c1S(=O)(=O)Nc1ccc(N(C)C)cc1 | active: 12.6 µM | 
COc1ccc(-n2c(=O)c3ccccc3n(CC(=O)Nc3cccc(OC)c3)c2=O)cc1 |  | inactive: -4.41% [at 11.4 µM]
C[N+]1(CC(=O)OCCCc2ccccc2)CCOCC1 | active: 50.1 µM | 
O=C(COC(=O)c1n[nH]c2ccccc12)c1ccc(F)c(F)c1 | inconclusive: 17.8 µM [inhibitor, partial curve] | 
CN(CCc1ccccn1)S(=O)(=O)c1ccc(F)cc1 | active: 5.62 µM | 
COc1ccccc1CCNC(=O)c1ccc2c(c1)c(C)c(C)n2C | inconclusive: 50.1 µM [inhibitor, partial curve] | 
Cn1c(=O)c2c(n3c4ccccc4nc13)NC(=O)CC2c1ccccc1F (stereo not drawn) | inactive | 
CCN1CCN(Cc2ccc(C(=O)Nc3ccc(C)c(NCc4cnc(NC(=O)OC)cn4)c3)cc2C(F)(F)F)CC1 | inactive | 
COc1ccc(-c2cn(CCC(=O)NCc3ccc(C)cc3)c(CCN)n2)cc1 | inconclusive: 44.7 µM [inhibitor, partial curve, poor fit] | 
Cc1ccccc1NC(=S)NCc1ccc2[nH]c3c(c2c1)CCCC3 | active: 39.8 µM | 
CCc1nnc2c(Nc3ccc(Br)c(C)c3)nc3ccccc3n12 | inconclusive: 50.1 µM [inhibitor, partial curve] | 
Cc1[nH]c(=S)c(C#N)c(-c2ccccc2)c1C(=O)Nc1ccccc1 | active: 79.4 µM | 
O=C1ON=C(c2ccccc2[N+](=O)[O-])/C1=C/c1cccc([N+](=O)[O-])c1O | inconclusive: 39.8 µM [inhibitor, single point] | 
COc1ccc(NC(=O)Cc2c(C(=O)O)n(C)c3ccccc23)cc1OC | inconclusive: 79.4 µM [inhibitor, partial curve] | 
C=CCN1C(=O)C2(NNc3ccccc3O2)c2ccccc21 (stereo not drawn) | inconclusive: 56.2 µM [inhibitor, partial curve] | 
C=CCn1c(SCC(=O)Nc2ccc(N(C)C)cc2)nnc1-c1cccc(C)c1 | active: 50.1 µM | 
CN1CCC2(CC1)N=C(c1ccc(F)cc1)C(=S)N2C(=O)c1ccccc1 | inconclusive: 44.7 µM [inhibitor, single point] | 
CCOc1ccc2cc(C3CC(c4ccco4)=NN3S(=O)(=O)c3ccccc3)c(Cl)nc2c1 (stereo not drawn) | inactive | 
CC(=O)N1CCN(c2ccc(Oc3ncnc4sccc34)cc2)CC1 | inconclusive: 100 µM [inhibitor, single point] | 

Compound | Potency | activity change, negative = inhibition
CCc1ccc(N2CC(C(=O)OCC(=O)Nc3ccc(C(C)=O)cc3)CC2=O)cc1 (stereo not drawn) | inconclusive: 44.7 µM [inhibitor, single point] | 
COc1cccc(N2CCN(C(=O)C3CCCN(S(=O)(=O)c4ccc(Br)s4)C3)CC2)c1 (stereo not drawn) | inconclusive: 2.82 µM [inhibitor, full curve, poor fit] | 
Cc1cccc(N2CCN(C(=O)Cn3cccc3)CC2)c1C | inconclusive: 44.7 µM [inhibitor, full curve, poor fit] | 
C#CCOCCOCCOCCNc1nc(N2CCOCC2)nc(N2CCN(C(=O)CCCCCCCCCCNC(=O)Cn3cc(CCCCCN)nn3)CC2)n1 | inconclusive: 89.1 µM [inhibitor, single point] | 
S=C(Nc1ccccc1)N1CCn2cccc2C1c1cccnc1 (stereo not drawn) | inconclusive: 56.2 µM [inhibitor, partial curve] | 
CSc1ccc(CNCc2c(C(=O)O)c(C)n(Cc3ccc(F)cc3Cl)c2C)cc1 | inconclusive: 79.4 µM [inhibitor, partial curve] | 
CCOc1cc(NC(=S)NCC2CCCO2)c(OCC)cc1NC(=O)c1ccccc1F (stereo not drawn) | inconclusive: 25.1 µM [inhibitor, partial curve] | 
COc1ccc(-c2cccc(-c3cc(=O)oc4cc(OC)cc(OC)c34)c2)cc1 | inactive | 
Cc1cccc(N(CC(=O)N/N=C/c2cc([N+](=O)[O-])ccc2Cl)S(C)(=O)=O)c1C | inconclusive: 35.5 µM [inhibitor, partial curve] | 
CC1=C/C(=C\c2ccc3c(c2)OCO3)C(=O)S1 | inconclusive: 7.08 µM [inhibitor, full curve, poor fit] | 
CC(C)CCNC(=O)C12CN(Cc3ccccc3)CC1C(c1ccc([N+](=O)[O-])cc1)=NO2 (stereo not drawn) | inconclusive: 50.1 µM [inhibitor, partial curve] | 
CCC(C)NC(=O)Cn1c(=O)n(Cc2ccc(C(=O)NCCCOC)cc2)c(=O)c2ccccc21 (stereo not drawn) | inactive | 
O=C(Cn1cc(S(=O)(=O)Cc2ccc(F)cc2)c2ccccc21)NCCc1ccccc1 | inconclusive: 89.1 µM [inhibitor, partial curve, poor fit] | 
COc1ccc(NS(=O)(=O)c2cc3[nH]c(=O)c(=O)[nH]c3cc2C)cc1OC | inactive | 
COc1ccc(-c2nc3c(n2O)CCC/C3=N\O)cc1 | inconclusive: 25.1 µM [inhibitor, full curve, poor fit] | 
CN(C)CCN(C(=O)/C=C/c1cccs1)c1nc2c(F)cc(F)cc2s1 | active: 39.8 µM | 
COCC(=O)N(Cc1cc2ccc(C)cc2[nH]c1=O)c1ccc(C)cc1C | inactive | 
O=[N+]([O-])c1cccc(/C([O-])=C(/C(=S)Nc2cccc3ccccc23)[n+]2ccccc2)c1 | inconclusive: 56.2 µM [inhibitor, partial curve, poor fit] | 
COc1cc([C@H](Cc2ccccc2)NC(C)=O)oc(=O)c1 | inconclusive: 63.1 µM [inhibitor, partial curve] | 
Oc1c(Br)cc(Br)cc1/C=N/Nc1ccc(Cl)nn1 | inconclusive: 7.08 µM [inhibitor, full curve] | 
COc1ccc(COc2cc(-c3cccc(OC)c3)nc3ccc(NC(=O)c4cccnc4)cc23)cc1 | inconclusive: 17.8 µM [inhibitor, partial curve] | 
CC1=CC(c2ccc(Cl)cc2)n2nc(N3C(=O)CCC3=O)nc2N1 (stereo not drawn) | inconclusive: 12.6 µM [inhibitor, full curve, poor fit] | 
O=C(COC(=O)c1ccc[nH]c1=O)NCCCc1ccccc1 | inactive | 

Compound | Potency | activity change, negative = inhibition
N#Cc1c(NC(=O)c2ccncc2)sc2c1CCC2 | active: 63.1 µM | 
CCCCNC(=O)C1CCN(Cc2ccc(OCc3ccccc3)c(OC)c2)CC1 | active: 22.4 µM | 
COc1ccc(-n2c(SCC(=O)Nc3cc(C(=O)O)ccc3C)nc3ccccc3c2=O)cc1Cl | inactive | 
CCn1c(C(=O)N2CCC(C(=O)N3CCN(c4cccc(C)c4C)CC3)CC2)cc2sccc21 | inconclusive: 56.2 µM [inhibitor, partial curve] | 
CCNC(=S)N(CCc1c(C)[nH]c2ccc(C)cc12)Cc1cccnc1 | inconclusive: 56.2 µM [inhibitor, partial curve] | 
COc1ccc(C2Nc3ccccc3C(=O)N2Cc2ccccc2)cc1COc1ccc(NC(C)=O)cc1 (stereo not drawn) | inconclusive: 56.2 µM [inhibitor, partial curve] and inconclusive: 44.7 µM [inhibitor, partial curve] | 
CCOc1ccc(CC(=O)N/N=C/c2sccc2C)cc1 | inactive | 
CCOc1cc(CNc2ccc(N(C)C)cc2)cc(Br)c1OCC(=O)NC(C)(C)C | active: 39.8 µM | 
CCOC(=O)C1CCN(S(=O)(=O)c2ccc(OC)c(C(=O)N3CCCCC3)c2)CC1 | inactive | 
N#Cc1c(NC(=S)NC(=O)c2ccccc2)sc2c1CCCC2 | inconclusive: 35.5 µM [inhibitor, single point] | 
COc1ccc(-c2c(-c3cc(OC)cc(OC)c3)n(C)c3ccc(-c4cnc(N)nc4)cc23)cc1 | inconclusive: 3.55 µM [inhibitor, full curve] | 
CCSc1nnc(NC(=O)C2CC=CCC2C(=O)O)s1 (stereo not drawn) | inconclusive: 89.1 µM [inhibitor, single point] | 
COc1ccc(C2Nc3ccc(NC(=O)CO)cc3C(=O)N2Cc2cccc(Cl)c2)cc1COc1ccc(NC(C)=O)cc1 (stereo not drawn) | active: 56.2 µM | 
O=C(Cn1c(-c2cscn2)nc2ccccc21)Nc1ccc2ccccc2c1 | inconclusive: 79.4 µM [inhibitor, partial curve] | 
O=C(Nc1ccc(F)c(Cl)c1)N1CCN(C(=O)c2nsc3ccccc23)CC1 | inactive | 
COC(=O)c1sc(NC(=S)NNC(=O)c2c(Br)c(C)nn2C)c(C(=O)OC)c1C | active: 50.1 µM | 
Cc1cc(N2CCN(c3ccccc3Cl)CC2)n2cc(-c3ccccc3)nc2n1 | inconclusive: 89.1 µM [inhibitor, single point] | 
COc1cc(/C=C2\SC(=S)N(NS(=O)(=O)c3ccc(C)cc3)C2=O)cc(OC)c1OC | inconclusive: 44.7 µM [inhibitor, partial curve] | 
CCn1cc(C(=O)O)c(=O)c2ccc(C)nc21 | inactive | 
CC(C(=O)Nc1ncn[nH]1)N1C(=O)c2ccccc2C1=O (stereo not drawn) | inactive | 
Cc1ccc(NCc2cccn2-c2nnc(N3CCCCCC3)s2)cc1 | inconclusive: 56.2 µM [inhibitor, partial curve] | 
CCOP(=O)(O)c1ccccc1OCCOCCOc1ccccc1P(=O)(O)OCC | inconclusive: 89.1 µM [inhibitor, single point] | 
